The conditions of this series: Escherichia coli (strain K12), 25 °C, GdnHCl, CD, reversible: Unknown.

In the case of “Thioredoxin 1 wild type (letters omitted)”, the denaturant m value by setting is: (pH 6.5, ACES 50 mM) 2.4 kcal/mol/M; (pH 7, TES 50 mM) 2.3 kcal/mol/M; (pH 7.5, TES 50 mM) 2.2 kcal/mol/M; (pH 8, Tris 50 mM) 2.2 kcal/mol/M; (pH 8.5, Tris 50 mM) 2.1 kcal/mol/M. Besides, the unfolding free energy by setting is: (pH 6.5, ACES 50 mM) 10 kcal/mol; (pH 7, TES 50 mM) 9.5 kcal/mol; (pH 7.5, TES 50 mM) 9 kcal/mol; (pH 8, Tris 50 mM) 8.8 kcal/mol; (pH 8.5, Tris 50 mM) 8.6 kcal/mol.

The record behind these values is FireProtDB (doi:10.1021/bi00244a032).
